Measurements reported in PubChem BioAssay AID1963576 (National Center for Advancing Translational Sciences (NCATS), 2024).
Among all 46,000 compounds or so, about 60 (0.1%) were called active. About 3% were inconclusive and are not listed. Calls come from the whole dose curve; as a rule, active = well fitted inhibition curve with a large enough effect; inconclusive = small, poorly fitted or top-dose-only effect; inactive = no such curve, though single readings can be large or run the other way. The list shows a part of the results.

experiment: Primary qHTS assay for Inhibitors of ovarian cancer metastasis using an organotypic tumor microenvironment (TME) model.; note: nearly all actives have a fitted effect of over 65% in size;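 for activity change, negative = inhibition: plate controls were DMSO wells for no effect and tomatine positive control wells for full effect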; details: SKOV3ip1-GFP adhesion/invasion on 3D omental model, fluorescence; series mostly up to 45.8 µM; activity change, negative = inhibition: at the top concentration
In short: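 Primary human omental fibroblast/mesothelial 3D culture pre-formed 48 h. SKOV3ip1-GFP cells added with compounds (0.36-46 umol/L), incubated 2 h RT/16 h 37 C, fixed; GFP cells quantified at 488/509 nm.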

Activity change, negative = inhibition, inactive:
CCOc1ccc(NC(=O)c2cc(S(=O)(=O)N3CCN(c4ccccc4F)CC3)ccc2F)cc1 13.5%
Cc1ccc2[nH]c(=O)c3cc(C(=O)NC4CCC(C)CC4)sc3c2c1 (centres undefined) 4.18%
CCCCN(C)C(=O)CSc1nc2ccccc2nc1Cc1ccc(C)cc1 0.205%
Cc1c(Cl)cccc1NC(=O)CSc1nc(=O)n(Cc2ccco2)c2c1CCC2 8.29%
Cc1ccc(CCNC(=O)CN(c2ccc(C)cc2)S(=O)(=O)N(C)C)cc1 4%
CC(C)OCc1cc(CN2CCN(c3cccc(C(F)(F)F)c3)CC2)c(O)c2ncccc12 -4.61%
COc1cccc2c1cc1c(=O)n(CC(=O)NCc3ccco3)nc(C)n12 -5.45%
Cc1cccc(N(C)S(=O)(=O)c2cc3[nH]c(=O)c(=O)[nH]c3cc2C)c1 11.3%
CCSc1nnc2c(n1)OC(c1ccc(OC)c(OC)c1)N(C(C)=O)c1ccccc1-2 (centres undefined) -12%
CN(C)c1ccc(CNC(=O)C2CCN(Cc3cc4ccccc4n3Cc3ccccc3)CC2)cc1 -0.164%
CCCCC(=O)Nc1nnc(S(=O)(=O)N(C)Cc2ccccc2)s1 5.77%
CCCCCNC(=O)C1CCC(Cn2c(=O)c3sccc3n(CC(=O)NCc3cccc(OC)c3OC)c2=O)CC1 (centres undefined) 2.47%
Cc1ccc(-c2noc(CSc3nnc(C)n3-c3ccc(C)c(C)c3)n2)cc1 31.1%
COc1ccc(Cl)cc1NC(=O)CSc1ccc2nnc(CCNS(=O)(=O)c3ccccc3)n2n1 -0.167%
NS(=O)(=O)c1cc2c(cc1Cl)NCNS2(=O)=O 6.43%
O=C(COc1ccc(F)cc1)OCc1cc(=O)n2nc(-c3cccs3)sc2n1 -0.432%
COc1ccc(/C=C(\C#N)c2nc3ccccc3c(=O)[nH]2)cc1OC 0.841%
CCOc1ccc(S(=O)(=O)Nc2ccc3oc4c(c3c2)CC(C)CC4)cc1 (centres undefined) 14.6%
COc1ccccc1CNC(=O)COCc1cc(-c2ccc3c(c2)OCO3)on1 13.3%
COc1ccc(C)c2sc(NC(=O)c3ccc(S(=O)(=O)N4CCCC4)cc3)nc12 22.8%
CCOc1ccccc1CNC(=O)Cn1nc(N2CCN(c3ccccc3)CC2)ccc1=O 13.5%
COc1ccc(C(=O)NCc2ccc3c(c2)CCN3C(=O)c2ccc(F)cc2)cc1 -3.99%
COc1cc(NS(=O)(=O)c2c(C)nc3sc(C)c(C)n3c2=O)cc(OC)c1 3.85%
CCc1ccc(NC(=O)C2=CC(c3cccs3)=NS(=O)(=O)N2C)cc1 -20.6%
CN(C)c1ccc(CNC(=O)C2COc3ccccc3C2)cc1 (centres undefined) -1.94%
O=C(CSc1ncccc1C(=O)Oc1ccccc1Cl)Nc1ccccc1Cl -0.252%
O=C1c2cccc(O)c2C(=O)c2c(O)cc(CO)cc21 -6.93%
CN(C)CCC=C1c2ccccc2C=Cc2ccccc21 -7.97%
O=C(NCc1ccco1)c1ccc(Cn2c(SCc3ccccc3F)nc3cccnc32)cc1 -23.7%
O=C(NCc1ccc(Cl)cc1)NC1COc2ccccc2C1 (centres undefined) 2.59%
CC1CCN(S(=O)(=O)c2ccc3c(c2)N(CC(=O)NCC(C)c2ccccc2)C(=O)CO3)CC1 (centres undefined) 3.06%
Cn1nnnc1SCCCNCc1cccc(OCc2ccccc2)c1 -0.082%
Cc1ccc(-c2cc(C(F)(F)F)n3ncc(-c4ccccc4)c3n2)cc1 1.38%
CCOc1ccc(C(=O)c2oc3ccccc3c2NC(=O)c2cc(-c3ccc(C)cc3)on2)cc1 4.8%
CN(C)CCc1c[nH]c2ccc(C[C@H]3COC(=O)N3)cc12 -0.694%
CCOc1ccccc1NC(=O)C1CCCN1S(=O)(=O)c1ccc2nc(-c3ccccc3)[nH]c2c1 (centres undefined) -14.5%
COc1ccc(CCNC(=O)Cn2cc(S(=O)(=O)Cc3ccc(F)cc3)c3ccccc32)cc1OC 0.175%
O=C(NC1CCCCC1)c1ccc2c(c1)N(Cc1ccccc1Cl)C(=O)c1ccccc1S2 -3.36%
O=S(=O)(c1ccccc1)c1nnn2c1nc(NCc1ccccc1)c1cc(Cl)ccc12 -1.06%
Cc1ccc2occ(CC(=O)Nc3ccc(S(=O)(=O)N4CCC(C)CC4)cc3)c2c1 -3.22%
Cc1nc2nc(C)c(CCC(=O)NCc3ccccc3)c(C)n2n1 -15.7%
CCOCCn1ccc2c(OCC(=O)Nc3cccc(F)c3)cccc2c1=O 5.41%
CCC(C)NC(=O)Cn1c(=O)n(Cc2ccc(C(=O)NCc3ccc(C)cc3)cc2)c(=O)c2ccccc21 (centres undefined) -0.459%
COc1ccc(C)cc1Nc1ncnc2c1c(-c1ccccc1)cn2-c1ccc(C)cc1 7.11%
Cc1ccc(C2c3c(oc4ccccc4c3=O)C(=O)N2c2nnc(C)s2)cc1 (centres undefined) 4.57%
CCCOc1ccc(-c2cc(C(F)(F)F)c(C#N)c(SCCC(=O)O)n2)cc1 -0.94%
Cc1ccc(S(=O)(=O)C(CNC(=O)COc2ccccc2)c2ccco2)cc1 (centres undefined) 0.0982%
O=C(Nc1ccccc1C(=O)OCc1cc(=O)n2nc(C3CC3)sc2n1)c1cccc(F)c1 0.634%
Cc1ccc(CNC(=O)CSc2nc3n[nH]c(C)c3c(=N)n2-c2ccccc2Cl)cc1 -17.1%
Cc1cc(C)n(-c2nc3cc(Cl)ccc3nc2N2CCN(c3ccccc3F)CC2)n1 -1.05%
COCCNC(=O)c1ccc(-c2nc(CS(=O)(=O)c3ccccc3)c(C)o2)cc1 10.8%
CN1C(=O)C2(SCC(=O)N2c2ccc(Cl)cc2)c2ccccc21 (centres undefined) 4.12%
Cc1ccc(CCNC(=O)c2ccc3c(c2)nc2n3CCOC2)cc1 -20.7%
Cc1nc2sccn2c(=O)c1S(=O)(=O)Nc1cc(C(F)(F)F)ccc1Cl 1.28%
O=C(Nc1ccc(F)c(Cl)c1)N1CCC(CN2CCOCC2)CC1 -9.91%
COc1ccccc1CNC(=O)CSc1nnc(C)c2c(C)n(-c3ccccc3)nc12 -2.03%
O=C(CSc1nc2c(c(=O)[nH]1)CN(Cc1ccc3c(c1)OCO3)CC2)Nc1ccccc1Cl 18.8%
COc1cccc(Cn2c(CNS(=O)(=O)c3ccc(Cl)s3)nc3cccnc32)c1 -34.9%
CNNCc1ccc(C(=O)NC(C)C)cc1 2%
CCc1nn2c(=O)c(S(=O)(=O)Nc3ccc(C(C)C)cc3)c(C)nc2s1 3.58%
CC(=O)N1CCCc2cc(S(=O)(=O)N3CCCC(C(=O)NCc4ccc(C)cc4)C3)ccc21 (centres undefined) -10.3%
CCOc1ccc(NCc2nc3ccccc3n2CCOc2ccc(C)cc2)cc1 7.71%
CCOc1ccc(NC(=O)CSc2nc3ccsc3c(=O)n2CCCCCC(=O)O)cc1 23.6%
CCOc1ccc(Cn2c(=O)sc3ccccc32)cc1 -1.44%
CC(=O)N1CCc2cc(S(=O)(=O)NC(CC(C)C)C(=O)Nc3cc(C)cc(C)c3)ccc21 (centres undefined) -4.69%
Cc1cccc(C)c1NC(=O)CS(=O)(=O)c1nc(-c2ccc(Cl)cc2)cn1-c1ccccc1 0.475%
CCC(=O)C1=C(c2ccc(C)cc2)N(C(=O)CC)n2c(nnc2C2CCCCC2)S1 -9.26%
CC1=C(C(=O)Nc2ccccc2C)C(c2ccccn2)n2ncnc2N1 (centres undefined) 10.4%
CCOC(=O)c1nc(NCc2ccc(Cl)cc2)c2c(C)noc2n1 -1.12%
COc1ccc(NC(=O)CSc2nc(-c3cccc(C)c3)[nH]c2-c2ccccc2)cc1OC 8.18%
Cc1ccc(C)c(-c2ccc(=O)n(Cc3c(F)cccc3Cl)n2)c1 -4.35%
CC(=O)N1CCc2c(sc3c2c(=O)n(CCc2ccccc2)c(=O)n3Cc2ccccc2C)C1 -12%
CC(C)Sc1ncc(Cl)c(C(=O)Nc2ccc(S(=O)(=O)N3CCCCC3)cc2)n1 5.02%

outcome, inactive:
COc1ccccc1C(=O)Nc1nnc2n1CCS2
O=C1C(=O)N(C2CCN(C(=O)c3ccccc3F)CC2)CCN1Cc1ccc(F)cc1
COc1cccc(CNS(=O)(=O)c2c(C(=O)N3CCC(C)CC3)c(C)n(C)c2C)c1
CCN1CCN(c2ncnc3c2cnn3-c2cccc(C)c2)CC1
Cc1c(C(=O)OCc2ccccc2)[nH]c2c1C(=O)CC(c1ccc(Cl)cc1)C2 (centres undefined)
CC(C)c1ccc(NC(=O)CCS(=O)(=O)c2ccc3c(c2)CC(=O)N3C)cc1
CCCCCn1cc2c(c1-c1ccccc1Br)c(=O)n(C)c(=O)n2C
O=C(Nc1cccc(F)c1)c1oc2ccccc2c1NC(=O)C12CC3CC(CC(C3)C1)C2
CCOc1ccc2ncc3c(-c4cccc(OC)c4)nn(-c4ccccc4)c3c2c1
CCOc1ccccc1CNCCSc1nnnn1C
COc1cccc(Cc2nc3ccccc3nc2SCC(=O)Nc2cc(OC)ccc2OC)c1
COc1ccc(OC)c2sc(N3CCN(C(=O)C4COc5ccccc5O4)CC3)nc12 (centres undefined)
CCN(CCCNC(=O)CN1N=C(c2ccccc2)CCC1=O)c1ccccc1
O=c1c2sc3ccccc3c2n(Cc2ccccc2)c(=O)n1CCc1ccccc1
CC(C)CCNC(=O)C(Cc1ccccc1)NS(=O)(=O)c1ccc2c(c1)c(=O)n(C)c(=O)n2C (centres undefined)
CCCN(CCC)C(=O)Cn1c(=O)n(CCCCCC(=O)NCc2ccccc2Cl)c(=O)c2sccc21
CS(=O)(=O)N1CCc2cc(C(=O)Nc3ccc(C(F)(F)F)cc3)ccc21
CCOCCCn1c(SCC(=O)Nc2ccccc2Cl)nc2c(oc3ccccc32)c1=O
Cc1ccccc1OCCCCn1nnc2sc3c(c2c1=O)CCC(C)C3 (centres undefined)
CCc1ccc(-n2nc3ccc(NC(=O)COc4ccc(OC)cc4)cc3n2)cc1
Cc1cccn2c(=O)c3cc(C#N)c(=O)n(-c4nnc(SCc5ccc(Cl)cc5)s4)c3nc12
Cc1c(Cl)cccc1NC(=O)CCOc1ccccc1
Cc1ccc(C)c(Cn2c(=O)c3c(nc4n3CCN4c3ccccc3)n(C)c2=O)c1
Cc1ccc(NC(=O)CN2C(=O)COc3ccc(S(=O)(=O)NC4CCCC4)cc32)cc1N(C)C
Cc1cc(C)c2c(c1)c(C)cc1nnc(SCc3ccccc3C#N)n12
CCN(CC)S(=O)(=O)c1ccc2c(c1)c(=O)c(C(=O)N1CCN(c3cc(Cl)ccc3C)CC1)cn2C
